# In publication PMC12040169 (PLOS Biology, 2025):
# The list shows a part of the results.
# Tested on: T1, C. trachomatis L2/434/Bu expressing GFP (CTL2-GFP)
# T1 construct: L2/434/Bu GFP intracellular growth in HeLa cells
# Parameters: species or system HeLa; C. trachomatis total inclusion area by high-content imaging, normalised to DMSO
# Settings: total inclusion area; 28.5 h, 10 µM; inhibitor
# In short: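 After bulk GFP and resorufin fluorescence reads, cells were fixed, stained with Hoechst and imaged by high-content microscopy. Inclusion area and number (GFP) stood in for chlamydial growth, nuclei count (Hoechst) for host cell viability. MICs were derived as for the bulk readout.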
row,SMILES,% of control remaining
1,CC(NS(=O)(=O)c1cccc2c(S(=O)(=O)NC(C)c3ccccc3)cccc12)c1ccccc1 (stereo not drawn) [CBK267717],110.425
2,Clc1ccc(CN2CCC(NCCCn3cccn3)CC2)cc1 [CBK304004],73.7827
3,CCCc1n[nH]c(-c2c(F)cccc2F)c1C(=O)OCC [CBK113546],99.2491
4,COC(=O)CCc1ccc(S(=O)(=O)N2CCCN(Cc3c(-c4ccccc4)noc3C)CC2)cc1 [CBK063011],87.1502
5,CC1(C)CC(O[Si](C)(C)OC2CC(C)(C)NC(C)(C)C2)CC(C)(C)N1 [CBK261942],60.2788
6,COc1ccc(C(=O)C(OC(=O)c2cc(O)nc3ccccc23)c2ccccc2)cc1 (stereo not drawn) [CBK264083],81.459
7,COc1ccc(C(=O)N2CCN(Cc3cc(OC)ccc3OC)CC2)cc1 [CBK263032],88.4422
8,COc1ccc(S(=O)(=O)N(C)c2ccc(N3CCNCC3)c3ccccc23)cc1 [CBK022404C],51.0811
9,CCN1CCN(Cc2c(C(F)(F)F)[nH]c3ncccc23)CC1 [CBK285362],85.1841
10,O=S(=O)(c1ccc(-c2ccccc2)cc1)N1CCCN(CCCOC2CCCCO2)CC1 (stereo not drawn) [CBK063137],54.3914
11,Cc1cc(O)c(C(=O)Nc2cccc(Cl)c2)c(=O)n1Cc1ccco1 [CBK291143],88.3957
12,FC(F)(F)c1cccc(OCCN2CCOCC2)c1 [CBK269669C],111.257
13,CN1CCN(C(=O)CCC2CCCO2)C(c2ccccc2)C1 (stereo not drawn) [CBK282015],78.5928
14,Cc1c(-c2ccnc(N)n2)nnn1-c1ccc(Cl)cc1Cl [CBK018733],54.7195
15,CN(C)C(=O)c1ccc(-c2ccc3c(c2)COC(C2CCN(C(=O)CC(C)(C)c4ccccc4)CC2)O3)cc1 (stereo not drawn) [CBK149765],61.1445
16,Cc1ccc(OC(C)C(=O)N(C)c2ccccc2)cc1 (stereo not drawn) [CBK268645],82.0319
17,CCCN1CCc2c(sc3nc(SCC(=O)c4ccccc4)n(-c4ccccc4)c(=O)c23)C1 [CBK262587],91.0044
18,CCOC(=O)C1CCN(CCOc2ccc3ccccc3c2)CC1 [CBK270128C],88.4163
19,CCCC(=O)N1CCC(c2nc(Cc3cccs3)no2)C1 (stereo not drawn) [CBK283034],113.763
20,Cc1ccc(CN2CC[C@H]3NC(=O)c4ccccc4OCC/C=C/C[C@H]3C2)cn1 [CBK292056],92.3048
21,CC1(C)CC(NC(=O)COc2ccc([N+](=O)[O-])cc2)CC(C)(C)N1 [CBK266806],80.4846
